# In US8415310B2, “Isoxazoline derivatives as antiparasitic agents” (AH USA 42 LLC, priority 2010, dated 2013):
# Some entries share one result that the patent states for a list of compounds.
# System: Ctenocephalides felis
# Assay: Flea (Ctenocephalides felis) Membrane Feed Assay-Adult
# Assay type: in vivo
# Conditions: adult fleas fed on treated citrated bovine blood approximately 2 hours; knockdown and/or death at approximately 2 and 24 hours
# Protocol: Flea (Ctenocephalides felis) Membrane Feed Assay-Adult
# Comparative Data: Flea Feed Assay
# Comparator compounds T1 and T2 were tested in the flea feed assay, as described above, and are compared to Examples 39 and 43, respectively. The compounds T1 (WO2008/122375) and T2 (US2009/0156643) represent the closet exemplified art. The data represents the 24 hour time period. Endpoint data were recorded as an lethal dose 90% (LD^90) in μg/mL. […] Comparator compounds T1 and T2 both had LD^90 values of >30 […].
row,SMILES,lethal dose 90% (LD^90) [µg/mL]
1,"CC(=O)N1CC(F)(c2ccc(C3=NOC(c4cc(Cl)c(Cl)c(C(F)(F)F)c4)(C(F)(F)F)C3)cc2)C1 (stereo not drawn) [Example 75, 3-[4-(1-acetyl-3-fluoroazetidin-3-yl)phenyl]-5-[3,4-dichloro-5-(trifluoromethyl)phenyl]-5-(trifluoromethyl)-4,5-dihydroisoxazole]",≤ 1
2,"CCC(=O)N1CC(F)(c2ccc(C3=NOC(c4cc(C(F)(F)F)cc(C(F)(F)F)c4)(C(F)(F)F)C3)cc2)C1 (stereo not drawn) [Example 79, 5-[3,5-bis(trifluoromethyl)phenyl]-3-[4-(3-fluoro-1-propionylazetidin-3-yl)phenyl]-5-(trifluoromethyl)-4,5-dihydroisoxazole]",≤ 3
3,"O=C(C1CCCC1)N1CC(F)(c2ccc(C3=NOC(c4cc(Cl)c(Cl)c(C(F)(F)F)c4)(C(F)(F)F)C3)cc2)C1 (stereo not drawn) [Example 80, 3-{4-[1-(cyclopentylcarbonyl)-3-fluoroazetidin-3-yl]phenyl}-5-[3,4-dichloro-5-(trifluoromethyl)phenyl]-5-(trifluoromethyl)-4,5-dihydroisoxazole]",≤ 3
4,"CSCC(=O)N1CC(F)(c2ccc(C3=NOC(c4cc(Cl)c(Cl)c(C(F)(F)F)c4)(C(F)(F)F)C3)cc2)C1 (stereo not drawn) [Example 81, 5-[3,4-dichloro-5-(trifluoromethyl)phenyl]-3-(4-{3-fluoro-1-[(methylthio)acetyl]azetidin-3-yl}phenyl)-5-(trifluoromethyl)-4,5-dihydroisoxazole]",≤ 3
5,"O=C(C1CC1)N1CC(O)(c2ccc(C3=NOC(c4cc(Cl)c(F)c(Cl)c4)(C(F)(F)F)C3)cc2)C1 (stereo not drawn) [Example 82, 1-(cyclopropylcarbonyl)-3-{4-[5-(3,5-dichloro-4-fluorophenyl)-5-(trifluoromethyl)-4,5-dihydroisoxazol-3-yl]phenyl}azetidin-3-ol]",≤ 1
6,"CC(C)C(=O)N1CC(O)(c2ccc(C3=NOC(c4cc(Cl)c(Cl)c(Cl)c4)(C(F)(F)F)C3)cc2)C1 (stereo not drawn) [Example 94, 1-isobutyryl-3-{4-[5-(3,4,5-trichlorophenyl)-5-(trifluoromethyl)-4,5-dihydroisoxazol-3-yl]phenyl}azetidin-3-ol]",≤ 3
7,"O=C(CC1CC1)N1CC(F)(c2ccc(C3=NOC(c4cc(Cl)c(Cl)c(Cl)c4)(C(F)(F)F)C3)cc2)C1 (stereo not drawn) [Example 96, 3-{4-[1-(cyclopropylacetyl)-3-fluoroazetidin-3-yl]phenyl}-5-(3,4,5-trichlorophenyl)-5-(trifluoromethyl)-4,5-dihydroisoxazole]",≤ 1
8,"CCCC(=O)N1CC(F)(c2ccc(C3=NOC(c4cc(Cl)c(Cl)c(Cl)c4)(C(F)(F)F)C3)cc2)C1 (stereo not drawn) [Example 97, 3-[4-(1-butyryl-3-fluoroazetidin-3-yl)phenyl]-5-(3,4,5-trichlorophenyl)-5-(trifluoromethyl)-4,5-dihydroisoxazole]",≤ 1
9,"CC(C)C(=O)N1CC(F)(c2ccc(C3=NOC(c4cc(Cl)cc(C(F)(F)F)c4)(C(F)(F)F)C3)cc2)C1 (stereo not drawn) [Example 100, 5-[3-chloro-5-(trifluoromethyl)phenyl]-3-[4-(3-fluoro-1-isobutyrylazetidin-3-yl)phenyl]-5-(trifluoromethyl)-4,5-dihydroisoxazole]",≤ 1
10,"O=C(CO)N1CC(F)(c2ccc(C3=NOC(c4cc(Cl)cc(C(F)(F)F)c4)(C(F)(F)F)C3)cc2)C1 (stereo not drawn) [Example 101, 2-[3-(4-{5-[3-chloro-5-(trifluoromethyl)phenyl]-5-(trifluoromethyl)-4,5-dihydroisoxazol-3-yl}phenyl)-3-fluoroazetidin-1-yl]-2-oxoethanol]",≤ 1
11,"O=C(C1CCCC1)N1CC(F)(c2ccc(C3=NOC(c4cc(Cl)cc(C(F)(F)F)c4)(C(F)(F)F)C3)cc2)C1 (stereo not drawn) [Example 102, 5-[3-chloro-5-(trifluoromethyl)phenyl]-3-{4-[1-(cyclopentylcarbonyl)-3-fluoroazetidin-3-yl]phenyl}-5-(trifluoromethyl)-4,5-dihydroisoxazole]",≤ 3
12,"CCC(=O)N1CC(c2ccc(C3=NOC(c4cc(Cl)cc(Cl)c4)(C(F)(F)F)C3)cc2)C1 (stereo not drawn) [Example 104, 5-(3,5-dichlorophenyl)-3-[4-(1-propionylazetidin-3-yl)phenyl]-5-(trifluoromethyl)-4,5-dihydroisoxazole]",≤ 0.3
13,"O=C(N1CC(c2ccc(C3=NOC(c4cc(Cl)cc(Cl)c4)(C(F)(F)F)C3)cc2)C1)C1(O)CC1 (stereo not drawn) [Example 105, 1-[(3-{4-[5-(3,5-dichlorophenyl)-5-(trifluoromethyl)-4,5-dihydroisoxazol-3-yl]phenyl}azetidin-1-yl)carbonyl]cyclopropanol]",≤ 3
14,"COCC(=O)N1CC(c2ccc(C3=NOC(c4cc(Cl)cc(Cl)c4)(C(F)(F)F)C3)cc2)C1 (stereo not drawn) [Example 106, 5-(3,5-dichlorophenyl)-3-{4-[1-(methoxyacetyl)azetidin-3-yl]phenyl}-5-(trifluoromethyl)-4,5-dihydroisoxazole]",≤ 1
15,"O=C(CC1CC1)N1CC(c2ccc(C3=NOC(c4cc(Cl)c(Cl)c(C(F)(F)F)c4)(C(F)(F)F)C3)cc2)C1 (stereo not drawn) [Example 107, 3-{4-[1-(cyclopropylacetyl)azetidin-3-yl]phenyl}-5-[3,4-dichloro-5-(trifluoromethyl)phenyl]-5-(trifluoromethyl)-4,5-dihydroisoxazole]",≤ 1
16,"CCC(=O)N1CC(c2ccc(C3=NOC(c4cc(Cl)c(Cl)c(C(F)(F)F)c4)(C(F)(F)F)C3)cc2)C1 (stereo not drawn) [Example 109, 5-[3,4-dichloro-5-(trifluoromethyl)phenyl]-3-[4-(1-propionylazetidin-3-yl)phenyl]-5-(trifluoromethyl)-4,5-dihydroisoxazole]",≤ 1
17,"CCCC(=O)N1CC(c2ccc(C3=NOC(c4cc(Cl)cc(C(F)(F)F)c4)(C(F)(F)F)C3)cc2)C1 (stereo not drawn) [Example 110, 3-[4-(1-butyrylazetidin-3-yl)phenyl]-5-[3-chloro-5-(trifluoromethyl)phenyl]-5-(trifluoromethyl)-4,5-dihydroisoxazole]",≤ 1
18,"CCCC(=O)N1CC(c2ccc(C3=NOC(c4cc(Cl)c(Cl)c(C(F)(F)F)c4)(C(F)(F)F)C3)cc2)C1 (stereo not drawn) [Example 111, 3-[4-(1-butyrylazetidin-3-yl)phenyl]-5-[3,4-dichloro-5-(trifluoromethyl)phenyl]-5-(trifluoromethyl)-4,5-dihydroisoxazole]",≤ 3
19,"CSCC(=O)N1CC(c2ccc(C3=NOC(c4cc(Cl)c(Cl)c(C(F)(F)F)c4)(C(F)(F)F)C3)cc2)C1 (stereo not drawn) [Example 114, 5-[3,4-dichloro-5-(trifluoromethyl)phenyl]-3-(4-{1-[(methylthio)acetyl]azetidin-3-yl}phenyl)-5-(trifluoromethyl)-4,5-dihydroisoxazole]",≤ 3
20,"O=C(CC1CC1)N1CC(c2ccc(C3=NOC(c4cc(Cl)cc(C(F)(F)F)c4)(C(F)(F)F)C3)cc2)C1 (stereo not drawn) [Example 115, 5-[3-chloro-5-(trifluoromethyl)phenyl]-3-{4-[1-(cyclopropylacetyl)azetidin-3-yl]phenyl}-5-(trifluoromethyl)-4,5-dihydroisoxazole]",≤ 3
21,"COCC(=O)N1CC(c2ccc(C3=NOC(c4cc(Cl)cc(C(F)(F)F)c4)(C(F)(F)F)C3)cc2)C1 (stereo not drawn) [Example 116, 5-[3-chloro-5-(trifluoromethyl)phenyl]-3-{-4-[1-(methoxyacetyl)azetidin-3-yl]phenyl}-5-(trifluoromethyl)-4,5-dihydroisoxazole]",≤ 1
22,"O=C(N1CC(c2ccc(C3=NOC(c4cc(Cl)cc(C(F)(F)F)c4)(C(F)(F)F)C3)cc2)C1)C1(O)CC1 (stereo not drawn) [Example 118, 1-{[3-(4-{5-[3-chloro-5-(trifluoromethyl)phenyl]-5-(trifluoromethyl)-4,5-dihydroisoxazol-3-yl}phenyl)azetidin-1-yl]carbonyl}cyclopropanol]",≤ 3
23,"COCC(=O)N1CC(c2ccc(C3=NOC(c4cc(Cl)c(Cl)c(C(F)(F)F)c4)(C(F)(F)F)C3)cc2)C1 (stereo not drawn) [Example 119, 5-[3,4-dichloro-5-(trifluoromethyl)phenyl]-3-{4-[1-(methoxyacetyl)azetidin-3-yl]phenyl}-5-(trifluoromethyl)-4,5-dihydroisoxazole]",≤ 1
24,"CCC(=O)N1CC(c2ccc(C3=NOC(c4cc(Cl)cc(C(F)(F)F)c4)(C(F)(F)F)C3)cc2)C1 (stereo not drawn) [Example 120, 5-[3-chloro-5-(trifluoromethyl)phenyl]-3-[4-(1-propionylazetidin-3-yl)phenyl]-5-(trifluoromethyl)-4,5-dihydroisoxazole]",≤ 1
25,"CCCC(=O)N1CC(c2ccc(C3=NOC(c4cc(Cl)c(Cl)c(Cl)c4)(C(F)(F)F)C3)cc2)C1 (stereo not drawn) [Example 121, 3-[4-(1-butyrylazetidin-3-yl)phenyl]-5-(3,4,5-trichlorophenyl)-5-(trifluoromethyl)-4,5-dihydroisoxazole]",≤ 1
26,"CC(C)C(=O)N1CC(c2ccc(C3=NOC(c4cc(Cl)cc(C(F)(F)F)c4)(C(F)(F)F)C3)cc2)C1 (stereo not drawn) [Example 122, 5-[3-chloro-5-(trifluoromethyl)phenyl]-3-[4-(1-isobutyrylazetidin-3-yl)phenyl]-5-(trifluoromethyl)-4,5-dihydroisoxazole]",≤ 3
27,"O=C(N1CC(c2ccc(C3=NOC(c4cc(Cl)c(Cl)c(Cl)c4)(C(F)(F)F)C3)cc2)C1)C1(O)CC1 (stereo not drawn) [Example 123, 1-[(3-{4-[5-(3,4,5-trichlorophenyl)-5-(trifluoromethyl)-4,5-dihydroisoxazol-3-yl]phenyl}azetidin-1-yl)carbonyl]cyclopropanol]",≤ 1
